# Screen size: about 310,000 compounds; about 2,200 (0.71%) showed an effect of 50% or more. Effects have a minus sign here. This is one part of the list.
# Molecular target: human ether-à-go-go-related gene (hERG) potassium channel (human, UniProt Q12809)
# Assay: primary screen, population patch clamp on CHO cells stably expressing hERG
# Chain of human ether-à-go-go-related gene (hERG) potassium channel (Q12809 whole entry, looked up): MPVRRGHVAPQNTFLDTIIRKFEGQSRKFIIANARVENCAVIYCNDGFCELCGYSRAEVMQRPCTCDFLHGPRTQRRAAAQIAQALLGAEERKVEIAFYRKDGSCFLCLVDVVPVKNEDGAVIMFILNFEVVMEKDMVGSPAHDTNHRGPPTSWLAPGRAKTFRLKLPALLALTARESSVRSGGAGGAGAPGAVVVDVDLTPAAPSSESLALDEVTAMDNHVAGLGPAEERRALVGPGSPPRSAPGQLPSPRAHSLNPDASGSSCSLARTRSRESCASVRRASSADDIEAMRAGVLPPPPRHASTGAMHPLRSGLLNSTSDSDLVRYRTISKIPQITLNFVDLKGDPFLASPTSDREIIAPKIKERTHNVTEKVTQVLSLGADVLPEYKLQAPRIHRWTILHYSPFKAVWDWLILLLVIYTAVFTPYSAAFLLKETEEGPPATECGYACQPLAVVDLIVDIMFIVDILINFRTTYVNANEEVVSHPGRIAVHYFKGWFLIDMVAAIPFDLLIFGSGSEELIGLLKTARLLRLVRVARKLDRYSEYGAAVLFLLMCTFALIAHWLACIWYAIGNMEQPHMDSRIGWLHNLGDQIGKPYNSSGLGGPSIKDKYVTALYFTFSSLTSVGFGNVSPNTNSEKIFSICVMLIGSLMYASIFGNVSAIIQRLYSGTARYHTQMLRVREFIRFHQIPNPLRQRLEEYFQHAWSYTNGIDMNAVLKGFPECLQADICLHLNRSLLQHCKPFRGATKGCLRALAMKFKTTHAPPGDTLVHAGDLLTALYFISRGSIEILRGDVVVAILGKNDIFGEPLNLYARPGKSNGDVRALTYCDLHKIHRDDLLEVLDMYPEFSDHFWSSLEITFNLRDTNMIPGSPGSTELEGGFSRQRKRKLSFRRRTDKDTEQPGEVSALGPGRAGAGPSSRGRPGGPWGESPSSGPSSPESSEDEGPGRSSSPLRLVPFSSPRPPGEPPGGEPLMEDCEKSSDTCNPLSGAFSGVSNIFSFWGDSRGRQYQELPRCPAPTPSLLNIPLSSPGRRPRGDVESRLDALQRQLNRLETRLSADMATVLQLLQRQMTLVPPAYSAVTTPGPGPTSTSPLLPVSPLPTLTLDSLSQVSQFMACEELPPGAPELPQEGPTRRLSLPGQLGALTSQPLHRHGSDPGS
row,Structure (SMILES),"hERG current change (%, negative = inhibition) at 1uM [%]"
1,Cc1ccc(NC(=O)CSc2nc3ccccc3c3nc(CCc4c(C)n[nH]c4C)nn23)cc1F,3.64
2,O=C1CN(c2ccccc2)C(=S)N1C(=O)c1ccccc1,13.5
3,CCCN(C(=O)CSc1nnc(-c2ccoc2C)n1N)C1CCS(=O)(=O)C1 (stereo not shown),6.45
4,CC(C)CNC(=O)c1c(N)n(/N=C/c2ccccn2)c2nc3ccccc3nc12,16.6
5,CS(=O)(=O)N1CCC(C(=O)NCCC2=CCCCC2)CC1,8.6
6,Cc1[nH]c2ccccc2c1C(=O)C(C)OC(=O)c1ccc(NC(=O)CC#N)cc1 (stereo not shown),-5.19
7,O=C(CN1C(=O)S/C(=C\c2ccccc2F)C1=O)NCCCn1ccnc1,6.82
8,Cc1ccc(N2C(=O)c3cccc([N+](=O)[O-])c3C2=O)cc1C,9.91
9,CCOCCCNC(=O)/C(C#N)=C/c1cc(OC)c(O)c([N+](=O)[O-])c1,9.2
10,CCCC1C(=O)N(c2ccccc2)C1c1ccccc1 (stereo not shown),5.89
11,O=C(CSc1nnnn1-c1cccc2c1CCCC2)N1CCCC1,-5.05
12,Oc1c(C(c2ccc(F)cc2)N2CCc3ccccc3C2)sc2ncnn12 (stereo not shown),13.5
13,O=C(COC(=O)c1ccccc1NC(=O)c1ccccc1)c1ccc([N+](=O)[O-])cc1,3.47
14,COc1ccc(NC(=S)N2CCN(S(C)(=O)=O)CC2)cc1,12.2
15,CCn1cc(C2CC(=O)NC2=O)c2ccccc21 (stereo not shown),9.56
16,COC(=O)c1ccc(NC(=O)Nc2ccc(F)cc2)cc1,1.81
17,CS(=O)(=O)c1ccc(C(=O)OCC(=O)Nc2cccc(S(=O)(=O)N3CCCC3)c2)cc1,2.79
18,Cc1cc(/C=C2/SC(=S)N(c3cccc(C(F)(F)F)c3)C2=O)c(C)n1-c1cccnc1,7.53
19,CCCCCCCNC(=O)C1CC(=O)N(C)C(=Nc2ccc(OC)cc2)S1 (stereo not shown),16.1
20,O=C(CSc1nc2ccc(NC(=O)c3ccccc3C(=O)O)cc2s1)Nc1c(Cl)cccc1Cl,17
21,COc1ccc(-c2cc(C(F)F)n3ncc(C(=O)N4CCCCC4)c3n2)cc1,7.09
22,Cc1nc(N2CCN(S(=O)(=O)c3ccccc3C#N)CC2)c2c(-c3cccs3)csc2n1,-4.31

row,Structure (SMILES),"hERG current change (%, negative = inhibition) at 1uM [%]"
1,CCOC(=O)c1ncn2c1[C@@H]1CCNC1C(=O)c1cc(OC)ccc1-2 (stereo partly shown),-27.7
2,Cc1nc2ncnn2c(C)c1C/C=C/c1ccccc1,5.44
3,Cc1ccc(CN2CCN(C(=O)c3cccc4ccccc34)CC2)cc1.O=C(O)C(=O)O,12.5
4,CCOc1cc(/C=N/NC(=O)c2ccc(CN3CCOCC3)cc2)ccc1OC,1.6
5,COc1cccc(NC(=O)c2ccccc2NS(C)(=O)=O)c1,-5.46
6,O=C(Cn1nc(-c2ccccc2)c2ccccc2c1=O)Nc1cccc(O)c1,13.7
7,Cc1ccc(C(=O)NCN2CCN(c3ccc(F)cc3)CC2)cc1,6
8,N=c1c(C(=O)NC2CCCCC2)cc2c(=O)n3ccccc3nc2n1Cc1ccc(F)cc1,-29.5
9,CCN(CC)S(=O)(=O)c1cccc(N=Nc2c(O)c3ccccc3oc2=O)c1,6.47
10,COc1ccc(Cl)cc1NC(=O)CN(C)C(=O)CNC(=O)C12CC3CC(CC(C3)C1)C2,9.5
11,Cn1c(-c2sccc2OCc2ccc(Cl)cc2Cl)n[nH]c1=S,12.4
12,O=C(CN1C(=O)NC2(CCCCC2)C1=O)Nc1nc2c(F)cc(F)cc2s1,17.1
13,COc1ccc(C(=O)NC(=S)Nc2cc3oc4ccccc4c3cc2OC)cc1,2.97
14,CN(C)C(=O)Oc1cc(OC(=O)N(C)C)cc(C(O)CNC(C)(C)C)c1 (stereo not shown),11.7
15,O=C(c1cccc(-n2cnnn2)c1)N1CC=C(c2ccccc2)CC1,-3.52
16,O=S(=O)(c1ccc(F)cc1)N1CCCc2ccccc21,9
17,OCC1(Cc2ccc(Cl)cc2)CCN(CCCc2ccccc2)CC1,-83.6
18,CC(C)(C)NC(=O)C(=O)NNC(=O)c1cccc(Br)c1,1.02
19,Clc1ccc2nc(CSc3nnc4ccccn34)cn2c1,3.94
20,Cc1nnc(N/N=C/C(C)c2ccccc2)[nH]c1=O (stereo not shown),8.55
21,CCn1c(COc2ccc3c(c2)CCCC3)nnc1SCC(=O)Nc1nccs1,0.166
22,CCOC(=O)C1(C)Oc2ccc(S(=O)(=O)CC)cc2NC1=O (stereo not shown),16.3

row,Structure (SMILES),"hERG current change (%, negative = inhibition) at 1uM [%]"
1,O=C(NCc1cccc(Cl)c1)C1CCCN(c2ncnc3c2nc2n3CCCCC2)C1 (stereo not shown),-25.2
2,CCCCOc1ccc(Cl)cc1CSc1nnc(CC)n1N,7.59
3,Cc1cc(=O)oc(C)c1C(=O)NC12CC3CC(CC(C3)C1)C2,3.12
4,O=S(=O)(c1cccs1)N1CN(Cc2cccs2)c2nc3ccccc3nc21,4.53
5,CC(=O)Nc1ccc(C(O)(C(F)(F)F)C(F)(F)F)cc1,8.79
6,O=c1c2ccccc2c(C=NC2CCN(Cc3ccccc3)CC2)c(O)n1Cc1ccc2c(c1)OCO2,12.5
7,COc1ccc(C(=O)N2CCN(C(=O)c3ccco3)CC2)cc1OC,1.92
8,CC(NC(=O)CSc1ncccn1)c1ccc(Cl)cc1Cl (stereo not shown),30
9,COc1ccc(NC(=O)CN(C)Cc2c(F)cccc2Cl)cc1S(=O)(=O)N1CCCCC1,14.1
10,CCOC(=O)c1cnc2c(F)ccc(F)c2c1Sc1ccccc1,5.26
11,COc1cccc(NC(=O)CN2CCC(C)CC2)c1,4.13
12,O=[N+]([O-])c1cc(-c2csc(NC(CO)c3nc4ccccc4n3CCOCCO)n2)ccc1Cl (stereo not shown),7.42
13,CCCC[C@H]1COCCS(=O)(=O)N1Cc1ccc(C)cc1,8.5
14,COc1ccccc1C(=O)Nc1ccnn1C1CCN(C2CCSCC2)CC1,-44.5
15,O=S(=O)(c1cccc(COc2c(Cl)cccc2Cl)c1)N1CCOCC1,2.7
16,CSCCC(NC(=O)c1cc(C(C)(C)C)oc1C)C(=O)O (stereo not shown),15.6
17,CC1CC(C)CN(S(=O)(=O)c2ccc(C(=O)NCc3ccco3)cc2)C1 (stereo not shown),0.824
18,COc1ccccc1OP(=O)(Nc1ccc(Br)cc1)Oc1ccccc1OC,13.9
19,CCCOC(=O)CSC1=C(C#N)C(c2ccc3c(c2)OCO3)CC(=O)N1 (stereo not shown),7.14
20,COc1cc(/C=N/N2CCN(c3ccc(Cl)cc3)CC2)cc(OC)c1OC(C)=O,9.11
21,COc1ccc(CNC(=O)C2=CC(c3ccc(C)cc3)=NS(=O)(=O)N2C)cc1,5.85
22,Cc1cc(C)cc(NC(=O)C2CCC(CNC(=O)[C@@H]3Cc4ccccc4CN3)CC2)c1 (stereo partly shown),6.54

row,Structure (SMILES),"hERG current change (%, negative = inhibition) at 1uM [%]"
1,O=C(Cc1ccccc1)Nc1ccc(F)cc1,12.8
2,O=C(NCc1ccccn1)C1CCCN(S(=O)(=O)c2ccc(Br)cc2)C1 (stereo not shown),-1.52
3,C/C(CC(C)(C)C1CCCCC1)=N\NC(N)=S,11.9
4,C=C[C@@H]1c2c(F)cccc2N(S(=O)(=O)c2ccc(C)cc2)[C@H](c2ccc(C(=O)OC)cc2)C1(C#N)C#N,14.3
5,COc1cc(CN(C2CCCCC2)S(=O)(=O)c2ccc(S(=O)(=O)N(C)C3CCCCC3)cc2)cc(OC)c1OC,4.74
6,COc1cccc(OCC(=O)NN=C2c3ccccc3-c3ccccc32)c1,0.0134
7,O=c1cc(CSc2ccc(Cl)cc2)nc(-c2ccccc2)[nH]1,4
8,Nc1nc2ccccc2n1CCOc1ccc(Cl)cc1,0.404
9,COc1ccc(C(Nc2ccccc2)P(=O)(Oc2ccccc2)Oc2ccccc2)cc1 (stereo not shown),17.5
10,CN(C)C(=O)c1ccc(OCC(F)(F)F)nc1,10.1
11,O=C(c1ccc(F)cc1)N1CCC(C(=O)N2CCN(S(=O)(=O)c3cccc(Cl)c3)CC2)CC1,-16.9
12,COc1ccc(CCN(C)C(=O)c2cc(S(=O)(=O)NCc3ccccc3)ccc2C)cc1OC,4.37
13,CCOC(=O)/C(=N\Nc1ncnc2ccccc12)c1ccc(C)cc1,5.92
14,Cc1cc(C)cc(-n2c(SCC(=O)NCc3ccc4c(c3)OCO4)nc3ccccc3c2=O)c1,13.4
15,COc1ccc(NS(=O)(=O)c2ccc(C(=O)N3CCN(Cc4ccccc4)CC3)cc2)cc1,-4.78
16,CC(CCN1C(Nc2ccccc2)=NC[C@@H]1Cc1ccccc1)c1ccccc1 (stereo partly shown),-52.7
17,COc1cccc(-c2nn(-c3ccccc3)cc2C(=O)n2nnc3ccccc32)c1,-4.53
18,CN1C(=O)CSc2ccc(NC(=O)NCc3ccccc3)cc21,4.71
19,COc1cc(/C=N/O)cc(Cl)c1OC,11.5

# Source: article PMC4336329 (PLoS ONE, 2015)
